According to PubChem BioAssay AID463173 (ICCB-Longwood Screening Facility, Harvard Medical School, 2010):
The whole screen tested about 52,000 compounds, of which about 1,700 (3.3%) were called active. No stated cut-off is given here; in the data, active means survival mostly below about 52% (no sharp cut-off); inactive means mostly above about 56%. The list shows a part of the results.

Tested on: Wild type
Assay: S. aureus survival, RN4220 and DeltatarO strains – OD600, teichoic acid synthesis inhibitors, primary screen (AID 463173)
Settings: S. aureus RN4220 wild type/DeltatarO growth, OD600, 18 h, hits give low values, screened at 18.75 µg/mL (by protocol)

Row | Compound | survival
1 | CCc1ccccc1Nc1nn2c(=O)c3ccc(C(=O)NCc4cccs4)cc3nc2s1 | inactive: 67%
2 | O=C(c1cccc(S(=O)(=O)N2CCOCC2)c1)N1CCCCC1 | inactive: 107%
3 | CN1CCN(C(c2ccc(F)cc2)c2sc3nc(-c4ccco4)nn3c2O)CC1 (centres undefined) | inactive: 71%
4 | Cc1cccc(C(=O)Nc2cccc(C(=O)OCc3cc(=O)n4c5c(sc4n3)CCCC5)c2)c1 | inactive: 148%
5 | CCc1ccc(S(=O)(=O)c2nnn3c2nc(NCc2cccs2)c2sccc23)cc1 | inactive: 90%
6 | CCn1c(C)c(C)c2cc(C(=O)NCCc3cc(OC)c(OC)c(OC)c3)ccc21 | inactive: 73%
7 | CCNC(=S)N1CCN(C)CC1 | inactive: 104%
8 | O=C(Nc1ccccc1F)C(Cc1ccccc1)n1cccc1 (centres undefined) | inactive: 85%
9 | COc1ccc(-c2c3c(=O)n(C)c(=O)n(C)c3c3c(-c4ccccc4)nc4ccccc4n23)cc1 | inactive: 64%
10 | COc1ccccc1N1CCN(c2cc(N3CCCC3)nc(C)n2)CC1 | inactive: 111%
11 | COc1ccc(Cn2c(C(=O)O)c(CNCc3cccs3)c3ccc(C)cc32)cc1 | inactive: 67%
12 | O=C(Nc1ccc2nc(SCC(=O)N3CCOCC3)sc2c1)c1ccc(F)cc1 | inactive: 92%
13 | CNC(=O)c1cc2c(n(-c3ccc(C)cc3)c1=O)CC(C)(C)CC2=O | inactive: 66%
14 | Cc1cc(C)c(Nc2nn3c(=O)c4cc5c(cc4nc3s2)OCO5)c(C)c1 | inactive: 74%
15 | CNC(=O)C1CC(=O)N(c2ccc(OC)cc2)C1 (centres undefined) | inactive: 110%
16 | COc1cccc(C(=O)Nc2ccc3oc(-c4ccc5ccccc5c4)nc3c2)c1 | inactive: 80%
17 | COc1cc(OC)cc(-c2nc3nc(C)c(CCC(=O)Nc4ccc(Cl)cc4)c(C)n3n2)c1 | inactive: 79%
18 | CCCn1cnc2cc(NCc3ccc(OC)cc3OC)ccc21 | inactive: 63%
19 | CCOc1ccc(CC(=O)N2CCc3cc(OC)c(OC)cc3C2COc2ccc3c(C)cc(=O)oc3c2)cc1 (centres undefined) | inactive: 92%
20 | CC(C)CC(=O)Nc1ccccc1-c1nnn(CC(=O)N2CCc3ccccc3C2)n1 | inactive: 103%
21 | Oc1ccc(NCc2ccc(OCc3ccccc3)cc2)cc1 | inactive: 87%
22 | Cc1cc(=O)oc2cc(OCC(=O)Nc3ccc(O)c(C(=O)O)c3)ccc12 | inactive: 75%
23 | Cc1ccc(CNC(=O)CS(=O)(=O)Cc2nc(-c3ccccc3C)oc2C)cc1 | inactive: 127%

Row | Compound | survival
24 | CCCCCn1c(=O)[nH]c2cc(C(=O)NCc3ccccc3)ccc2c1=O | inactive: 83%
25 | CCCOc1ccc(NC(=O)C(=O)NCCCN2CCOCC2)cc1 | inactive: 75%
26 | COC(=O)CNC(=O)c1cc2sccc2n1Cc1ccccc1 | inactive: 99%
27 | CCOc1ccc(NC(=O)CCc2c(C)nc3cc(-c4ccc(Cl)cc4)nn3c2C)cc1 | inactive: 74%
28 | CC(C)CNS(=O)(=O)c1ccc(N2CCCCS2(=O)=O)cc1 | inactive: 84%
29 | Cc1cccc(-c2noc(CNC(=O)c3ccccc3Br)n2)c1 | inactive: 92%
30 | Cc1ccc(NC(=O)c2sc(-n3nc(C)c(Cc4ccc5c(c4)OCO5)c3C)nc2C)cc1Cl | inactive: 121%
31 | COc1ccc(CNC(=O)Cc2c(C)c3c(cc(C)c4c(C)c(C)oc43)oc2=O)cc1OC | inactive: 89%
32 | Cc1cccc(Cn2c(SCc3ccc(C(=O)NC4CCCC4)cc3)nc3ccncc32)c1 | inactive: 76%
33 | CCN(CC)S(=O)(=O)c1ccc2c(c1)N(CC(=O)NCCCN1CCN(c3cc(Cl)ccc3C)CC1)C(=O)CO2 | inactive: 65%
34 | CC1CCN(S(=O)(=O)c2ccc3c(c2)oc(=O)n3CC(=O)O)CC1 | active: -3%
35 | COc1ccc(CC(=O)Nc2ccc3nc(N4CCCCC4)cc(C)c3c2)cc1 | inactive: 86%
36 | COc1ccc(Cn2c(=O)c3ccccc3n3c(-c4cccc(OC)c4OC)nnc23)cc1 | inactive: 87%
37 | Cc1cccc(NC(=O)C2CCN(c3cnccn3)CC2)c1 | inactive: 93%
38 | CCOC(=O)c1c(NC(C)=O)c2c3c(sc2n1Cc1nc(-c2ccccc2Cl)oc1C)CCCC3 | inactive: 127%
39 | Cc1ccc(CNC(=O)c2cc3c(s2)-c2c(C)cccc2OC3)cc1 | inactive: 96%
40 | COc1ccc2c(c1)c1c(c(=O)n(Cc3ccccc3)c(=O)n1CC(=O)NCc1ccccc1)n2C | inactive: 119%
41 | Cc1cc(C)cc(NC(=O)N2CCN(c3cc(-c4noc(C)n4)ccc3C)CC2)c1 | inactive: 76%
42 | COc1ccc(CNCc2c(C(=O)O)n(Cc3ccc(F)cc3)c3cc(C)ccc23)cc1OC | inactive: 80%
43 | CN(C)CCN(Cc1ccco1)C(=O)c1oc2ccccc2c1NC(=O)c1cccc(F)c1 | inactive: 121%
44 | CCOCCCNC(=O)c1ccc(-n2c(-c3ccccc3)cc3c2CCCCC3)cc1 | inactive: 96%
45 | CCC(=O)N1CCc2cc(Br)cc(S(=O)(=O)CCC(=O)Nc3cccc(C)c3C)c21 | inactive: 161%
46 | COCCn1c(C)cc(O)c(C(c2ccc(F)cc2)N2CCN(c3ccccc3)CC2)c1=O (centres undefined) | inactive: 60%

Row | Compound | survival
47 | CCOC(=O)c1c(C)c(-c2ccccc2)n(CC(=O)NCCc2cccc(C)c2)c1C | inactive: 87%
48 | COc1ccc(CC(=O)NCCS(=O)(=O)N2CCN(c3ccc(F)cc3)CC2)cc1OC | inactive: 84%
49 | O=C(CSc1nc(=O)[nH]c2c1CCCC2)NCc1ccc(F)cc1 | inactive: 68%
50 | CCNC(=O)c1c(NC(=O)c2nc(S(=O)(=O)CC)ncc2Cl)sc2c1CCCC2 | inactive: 45%
51 | COc1ccccc1NC(=O)c1sc2nc3c(cc2c1N)CN(Cc1ccccc1)CC3 | inactive: 103%
52 | N#Cc1ccccc1Cn1cnc2nc3c(cc2c1=O)CCCC3 | inactive: 75%
53 | CCc1nc(C)cn1S(=O)(=O)c1ccc(Cl)c(Cl)c1OC | inactive: 77%
54 | Cc1cccc(C(=O)NC2=NC(c3ccc(Cl)cc3)CC(=O)N2)c1 (centres undefined) | inactive: 79%
55 | CCCOc1ccc(C(=O)Nc2ccc(NC(=O)c3ccccc3)c(C)c2)cc1 | inactive: 69%
56 | CCc1cc(=O)[nH]c(SCc2nc(-c3ccccc3)no2)n1 | inactive: 87%
57 | Cc1cccc(CC(=O)NCc2nc3cccnc3n2Cc2ccc(F)cc2)c1 | inactive: 64%
58 | Cc1nnc2c(N3CCN(c4ccccc4F)CC3)nc3ccc(C(=O)c4ccccc4)cc3n12 | inactive: 74%
59 | CS(=O)(=O)Nc1ccccc1C(=O)OCc1cc(=O)n2nc(C3CCCCC3)sc2n1 | inactive: 79%
60 | Cc1cc(F)ccc1NC(=O)CS(=O)(=O)c1cccc2nsnc12 | inactive: 73%
61 | Cc1ccccc1Nc1c(-c2ccccc2)nc2cccc(C)n12 | inactive: 73%
62 | O=C(Cn1cnc2c(nc3n2CCCCC3)c1=O)Nc1ccc(F)c(Cl)c1 | inactive: 124%
63 | CCOC(=O)C1CCC(CN(Cc2ccc(OC)cc2)S(=O)(=O)c2ccc(F)c(C(=O)Nc3c(C)cccc3C)c2)CC1 (centres undefined) | inactive: 72%
64 | O=C(Nc1cccc(Cl)c1)C1CCCN(c2ncnc3c2nc2n3CCCCC2)C1 (centres undefined) | inactive: 36%
65 | CC(C)c1ccc(NC(=O)N2CCC(c3nc4ccccc4o3)CC2)cc1 | inactive: 102%
66 | Nc1nnc(CCC(CCc2nnc(N)s2)(CCc2nnc(N)s2)C(=O)c2ccccc2)s1 | inactive: 112%
67 | COc1ccc(N2CC(NC(=O)C3CCCC3)CC2=O)cc1OC (centres undefined) | inactive: 126%
68 | COc1ccc(CNc2nc(SCc3ccccc3Cl)nc3ccccc23)cc1 | inactive: 101%
69 | CSc1ccc(CCNC(=O)c2cc3cc(S(=O)(=O)N4CCCCC4)ccc3n2C)cc1 | inactive: 53%

Row | Compound | survival
70 | CCN(C(=O)c1cn(CC(C)C)c(=O)c2cc(OC)c(OC)cc12)c1cc(OC)ccc1OC | inactive: 80%
71 | CC(C)c1ccc(NC(=O)Cn2nnc(C(=O)NCc3ccc(Cl)cc3)c2N)cc1 | inactive: 66%
72 | COc1ccc2c(c1)sc1ncc(C(=O)NCc3cccc(C)c3)c(=O)n12 | inactive: 66%
73 | CCN(CC)S(=O)(=O)c1ccc(-c2nnc(SCC(=O)Nc3nc4ccccc4s3)o2)cc1 | inactive: 108%
74 | CCN(CC)C(=O)N1c2ccccc2Sc2ccccc21 | inactive: 108%
75 | CC1CCCN(S(=O)(=O)c2cc3c4c(c2)CC(=O)N4CCC3)C1 (centres undefined) | inactive: 81%
76 | Cn1nc(C(=O)N2CCN(c3ccc(F)cc3)CC2)c2c1-c1ccccc1SC2 | inactive: 89%
77 | COc1ccc(CCNC(=O)c2cn(C)c3ccc(S(=O)(=O)N(C)C)cc3c2=O)cc1OC | inactive: 80%
78 | CCc1ccc(C(=O)c2cn(CC(=O)Nc3cc(F)ccc3F)c3nc(C)ccc3c2=O)cc1 | inactive: 135%
79 | CC1CCCCN1C(=O)CCS(=O)(=O)c1cc2c(cc1Cl)NC(=O)CO2 (centres undefined) | inactive: 87%
80 | COc1cccc(CNCCCSc2nnnn2C)c1OC | inactive: 98%
81 | COc1ccc(NC(=O)CCc2nnc3n(Cc4ccc(C)cc4)c(=O)c4ccccc4n23)cc1 | inactive: 92%
82 | CCc1ccccc1NC(=O)Cn1ccn(Cc2ccccc2)c(=O)c1=O | inactive: 84%
83 | O=C(NC1CCS(=O)(=O)C1)c1ccccc1C(=O)c1ccccc1 (centres undefined) | inactive: 107%
84 | Cc1cccc(C(=O)N2CCc3cc(CNS(=O)(=O)c4ccc(F)c(Cl)c4)ccc32)c1 | inactive: 78%
85 | CCS(=O)(=O)c1nc(S(=O)(=O)c2ccc(C)cc2)c(NC)s1 | inactive: 82%
86 | COc1ccc(NS(=O)(=O)c2ccc3[nH]c4c(c3c2)CCCCC4)cc1 | inactive: 127%
87 | CC(=O)Nc1c(C)nn(-c2ccccc2)c1N1CCC(C(=O)Nc2ccccc2F)CC1 | inactive: 57%
88 | Cn1c2ccccc2c2cnn(CC(=O)NCCCN3CCN(c4ccccc4F)CC3)c(=O)c21 | inactive: 84%
89 | Cc1cc(N)n2ncc(-c3ccccc3)c2n1 | inactive: 114%
